Measurements taken from the antibiotic and cytotoxicity screens of Wong et al. (2023).
Some of the results follow.

Tested on: S. aureus RN4220
Test: growth inhibition call (relative growth <= 0.2)
Conditions: 50 µM

| Structure (SMILES) | growth inhibition call |
| --- | --- |
| Oc1cc(O)c2c(c1)OC(c1ccc(O)c(O)c1)C(O)C2 (stereo not drawn) [CIANIDANOL [+-catechin]] | inactive |
| CCOC(=O)N1CCC(=C2c3ccc(Cl)cc3CCc3cccnc32)CC1 | inactive |
| COc1ccc(CCN(C)CCCC(C#N)(c2ccc(OC)c(OC)c2)C(C)C)cc1OC.Cl (stereo not drawn) | inactive |
